# From the supplement of paper PMC7335073
# Over roughly 4,100 sequences, “relative CpG methylation activity (normalised to average over all NNNCGNNN flanks)” has its median near 0.87; the highest 2% begin near 2.4. This is one part of the list.
# Target: DNMT3A catalytic domain (mouse) (UniProt O88508)
# Assay: relative CpG methylation activity (normalised to average over all NNNCGNNN flanks) (relative (1 = mean)); higher = more methylation of the central CpG
# Conditions: system: in vitro, murine catalytic domain; CpG state: hemimethylated substrate pool; residues: 608-908
# Procedure: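 Deep enzymology: a pool of dsDNA substrates with a central CpG flanked by 10 random nucleotides on each side was methylated by the murine DNMT3A or DNMT3B catalytic domain (0.8 mM SAM, 37 °C, 60 min). Methylation was then read out by hairpin ligation, bisulfite conversion and NGS. Values are the average methylation of each NNNCGNNN context (±3 flanks; the outer flanks are random and averaged over), normalised to the overall mean, so 1 = average activity.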
row,Sequence,relative CpG methylation activity
1,CGACGGCT,0.427
2,AAGCGCCC,1.53
3,GTACGAAA,1.64
4,ACGCGCGA,0.617
5,TCTCGTGA,0.842
6,TATCGTTA,0.458
7,CGACGTAA,0.865
8,ACTCGGTC,1.25
9,GGACGTGT,0.375
10,AGGCGTTT,0.588
11,ATGCGTTA,1.52
12,ATACGGAG,0.805
13,TCCCGTCT,1.64
14,CCGCGCTC,1.75
15,AATCGAGA,0.236
16,TGGCGTAC,0.55
17,ATGCGAAC,1.66
18,TTTCGCAA,1.42
19,GTACGCGG,0.656
20,ATGCGCGT,1.13
21,CATCGGTA,0.64
22,TTCCGGTT,1.33
23,AAACGGAT,0.45
24,CGACGCCA,1.29
25,CCGCGAAG,0.395

row,Sequence,relative CpG methylation activity
1,GCACGATC,1.84
2,GAACGCCG,1.42
3,TTCCGGGT,1.16
4,CGACGAGT,0.625
5,TGACGGGG,0.274
6,GTCCGCTT,2.54
7,GTACGGGA,1.06
8,AAACGCGG,0.329
9,CTACGAGG,0.826
10,GCCCGCCT,2.17
11,CAGCGTCC,0.828
12,TTTCGACC,1.36
13,CGGCGTGG,0.025
14,ACACGACC,1.72
15,GGACGTAG,0.18
16,GACCGTAG,0.224
17,AAGCGTAA,0.854
18,CTTCGGCA,0.902
19,TCTCGGGG,0.769
20,TATCGTAG,0.465
21,GGTCGGGA,0.149
22,AAGCGCTC,1.63
23,ATTCGGTG,0.625
24,TTCCGGAA,1.68
25,TTTCGCCT,2.24

row,Sequence,relative CpG methylation activity
1,GGTCGCGT,0.426
2,AGCCGTGT,0.263
3,AACCGCCT,1.76
4,GCACGCCG,1.62
5,TCCCGCGG,0.476
6,CGGCGCCG,1.36
7,ATTCGTGG,0.174
8,CTGCGGGA,0.764
9,CCTCGGCT,1.42
10,GACCGTGT,0.446
11,ACGCGTCA,1.45
12,AGTCGGAT,0.139
13,AGTCGCCC,1.53
14,CGGCGTCC,0.973
15,AAACGAAC,0.818
16,CACCGTAT,0.323
17,TTGCGGTA,1.17
18,CGTCGGCT,0.823
19,TACCGGGT,0.598
20,GCACGGGT,0.759
21,AGTCGAGC,0.94
22,GTGCGCGG,0.547
23,ACGCGCTT,1.83
24,GGTCGGGT,0.27
25,TGACGAAG,0.412

row,Sequence,relative CpG methylation activity
1,CGTCGGGC,0.746
2,TAGCGTAT,0.297
3,GATCGGGG,0.159
4,GCACGGGA,1.04
5,GGACGTCG,1.01
6,TGACGGTC,0.636
7,GAACGACT,0.672
8,TATCGGTA,0.417
9,CGTCGAGA,0.333
10,ATCCGCGC,1.76
11,ACTCGCAA,1.06
12,GGGCGCGA,0.679
13,GGGCGTTT,0.238
14,GGCCGCGA,0.973
15,CGGCGGCG,0.517
16,CTCCGAAT,1.39
17,TCTCGTAC,0.759
18,CCGCGTTC,1.34
19,GCCCGCGA,1.06
20,CGTCGTGG,0.246
21,ATCCGACT,1.44
22,GTCCGTGG,0.588
23,CCCCGGTG,0.539
24,TGTCGATA,0.255
25,GTGCGACT,1.59

row,Sequence,relative CpG methylation activity
1,TCGCGCCC,1.58
2,GTCCGGCC,1.95
3,GGACGTCC,1.27
4,TGTCGATC,0.929
5,TTCCGACT,1.9
6,ATGCGACG,1.57
7,ACGCGGCC,1.26
8,AGCCGTAA,0.721
9,CGACGAAC,0.915
10,TCACGAAA,1.08
11,CGCCGGCC,0.909
12,AAACGTGA,0.312
13,GGACGATT,0.55
14,GCTCGCCA,1.82
15,CTGCGAGG,0.764
16,GTCCGCCA,1.87
17,TGACGACC,0.727
18,AGTCGTCG,0.73
19,ATGCGCAA,1.49
20,TAACGGTT,0.556
21,AGCCGAAG,0.419
22,GAGCGTAC,0.689
23,GAACGTTC,0.876
24,GTCCGCCT,2.6
25,CTCCGGTA,1.29

row,Sequence,relative CpG methylation activity
1,GCTCGAGG,0.538
2,CTCCGCTC,2.19
3,ACACGGCA,1.69
4,GTACGCAG,1.08
5,ATGCGGTT,0.679
6,GGACGAGG,0.282
7,ATGCGCAG,1.09
8,TTCCGTTT,1.52
9,CCGCGGGG,0.0962
10,GTCCGTTT,1.38
11,ATGCGGCA,1.23
12,GATCGCTA,0.757
13,CGGCGGAG,0.025
14,AAACGCAT,0.686
15,CAGCGCAC,0.701
16,ACCCGTAT,0.921
17,TATCGGGC,0.556
18,GGGCGGTC,0.962
19,AGTCGCGC,0.408
20,CGCCGGTA,0.746
21,CGCCGACA,0.962
22,ACACGGTG,0.321
23,CCACGGTC,1.49
24,TGTCGTCC,1.39
25,GGGCGGTA,0.543

row,Sequence,relative CpG methylation activity
1,AGGCGGAA,0.565
2,TTCCGAGT,1.61
3,TGTCGTCG,1.13
4,ATCCGGTA,1.3
5,ATCCGGAT,1.34
6,CGACGTAG,0.598
7,AGACGCAG,0.457
8,TCGCGAGT,0.57
9,CCCCGGGC,1.25
10,TGACGCAA,0.89
11,GTGCGAGG,0.764
12,CACCGGCG,0.51
13,GTCCGTTG,1.25
14,CGGCGCAC,1
15,CTACGCTC,2.66
16,GCACGCTG,1.67
17,TGCCGAGG,0.443
18,ATGCGCAT,1.65
19,ACCCGGCA,1.26
20,ATACGTTC,2
21,GCGCGTAG,0.824
22,TGACGTAC,0.438
